In PubChem BioAssay AID686978 (National Center for Advancing Translational Sciences (NCATS), 2013):
Several values for one entry are separate records, joined by “and”; a condition that tells them apart may be missing. Equal entries are not always repeated. Among all 420,000 compounds or so, about 64,000 (15%) were called active. The inconclusive results got no clear call from the source; some entries with a clear call stand among them for comparison. The call rests on the fitted dose curve; in most records, active means well fitted inhibition curve with a large enough effect; inconclusive means small, poorly fitted or top-dose-only effect; inactive means flat fitted curve, though single readings scatter. Potencies of inconclusive entries are left out as doubtful fits. Some structures have more than one record in an assay (separate samples or runs), and their calls can disagree.
On the % scale 0 is the no-effect control and ±100 the full control effect; potency means the concentration at half of the fitted maximal effect; tags describe the fitted curve by direction and shape.

Experiment: qHTS for Inhibitors of human tyrosyl-DNA phosphodiesterase 1 (TDP1): qHTS in cells in absence of CPT; further: nearly all actives have a fitted effect of over 55% in size
Conditions: DT40 Tdp1-/- hTDP1 cells, no CPT, ATP luminescence, 48 h; activity change, negative = growth inhibition: at 46.2 µM (top of the series) unless noted
How it was run: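 No-CPT arm: Tdp1-/-;hTDP1 DT40 cells (400/well) plus compounds, incubated ≥48 hr at 37 °C. Readout CellTiter-Glo luminescence.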
For `CCC(=Nc1ccc(OC)cc1OC)c1c(O)n(C2CCCCC2)c(=O)[nH]c1=O`, the Potency was inconclusive [inhibitor, single point].
With `N#C/C(=C\c1ccc([N+](=O)[O-])cc1)c1nc(C2CC2)cs1` the Potency was inconclusive [inhibitor, partial curve, poor fit].
In the case of `N#Cc1ccccc1Cn1cc(C(=O)c2ccco2)c2ccccc21`, the Potency is reported as inconclusive [inhibitor, single point].
In the case of `Clc1cccc(CN2CCCCC2c2cccnc2)c1` (centres undefined), the Potency is reported as inconclusive [inhibitor, single point].
For `COc1cc2c(c(OC)c1OC)-c1ccc(OC)c(=O)cc1[C@H](NC(C)=O)CC2`, the Potency was active: 0.0596 µM.
With `O=c1c2ccccc2nc(-c2ccco2)n1-c1nccs1` the Potency was inconclusive [inhibitor, single point].
In the case of `CCOc1ccc(N=Cc2c(O)n(-c3cc(C)cc(C)c3)c(=O)[nH]c2=O)cc1`, the “activity change, negative = growth inhibition” value is reported as inactive: -7.68%.
In the case of `COc1ccc(-n2c(/C=C/c3ccc(O)cc3)nc3ccccc3c2=O)cc1`, the Potency is reported as active: 20.6 µM.
For `CC[N+]12CCC(CC1)C(=C(c1ccccc1)c1ccccc1)C2`, the Potency was active: 16.4 µM.
In the case of `CC12CCC3C(CCCC4CC(=O)CCC43C)C1CCC2O` (centres undefined), the Potency is reported as inconclusive [inhibitor, single point].
In the case of `CCN(CC)S(=O)(=O)c1ccc(C(=O)NC2CN3CCC2CC3)cc1` (centres undefined), the “activity change, negative = growth inhibition” value is reported as inactive: 17.7%.
For `O=C(Oc1ccccc1)N1CCC2(CCCN(Cc3nccs3)C2)CC1`, the Potency was inconclusive [inhibitor, partial curve, poor fit].
With `Cc1ccccc1C1=NCC(=O)N(CC(=O)NCc2ccco2)c2sc3c(c21)CCCC3` the Potency was active: 22.4 µM.
With `CC1CN1c1cc2c(c3c1ccn3C)C1CCC2C1` (centres undefined) the Potency was active: 8.2 µM.
With `O=C(Cc1n[nH]c(=O)c2ccccc12)OCc1c(Cl)cccc1Cl` the Potency was inconclusive [inhibitor, full curve].
In the case of `O=C1C(Br)C2CCC1C2C(=O)O` (centres undefined), the “activity change, negative = growth inhibition” value is reported as inactive: -0.346%.
In the case of `Fc1ccc(NC(=S)NC2CC3CCC(C2)N3Cc2ccco2)cc1` (centres undefined), the Potency is reported as inconclusive [inhibitor, single point].
In the case of `O=[N+]([O-])c1ccc(C(c2ccc([N+](=O)[O-])cc2)c2ccc([N+](=O)[O-])cc2)cc1`, the Potency is reported as active: 11.6 µM.
In the case of `O=C(CCC(=O)N1CCOc2ccc(Cl)cc21)N1CCC2(CC1)OCCO2`, the “activity change, negative = growth inhibition” value is reported as inactive: 28%.
For `CC(=O)N1N=C2C3CCN(CC3)C2C1c1ccc(F)cc1` (centres undefined), the activity change, negative = growth inhibition was inconclusive: 5.51% [inhibitor].
With `C[C@]12CC[C@@H](O)CC1=CC(=O)C1C2CC[C@]2(C)C(=O)CCC12` (some centres undefined) the Potency was inconclusive [inhibitor, single point].
In the case of `CCNc1nc(NC(C)C)nc(NS(=O)(=O)c2ccc(Cl)cc2)n1`, the Potency is reported as inconclusive [inhibitor, partial curve, poor fit].
With `CCOC(=O)c1cccc(NC(=O)c2cc(S(=O)(=O)N3CCCC(C)C3)cn2C)c1` (centres undefined) the Potency was inconclusive [inhibitor, single point].
For `O=C(c1ccc2c(c1)N(Cc1ccc(F)cc1Cl)C(=O)c1ccccc1S2)N1CCC2(CC1)OCCO2`, the Potency was active: 23.1 µM.
For `CCOc1cc(/C=C2\C(=O)NC(=O)N(CCc3ccc(F)cc3)C2=O)ccc1O`, the “activity change, negative = growth inhibition” value was inactive: -20.1%.
For `O=C(Nc1sc2c(c1C(=O)Nc1ccc(Cl)cc1)CCCC2)c1cccs1`, the Potency was active: 3.66 µM.
In the case of `O=[N+]([O-])c1c(Cl)cccc1-c1c[nH]cc1Cl`, the Potency is reported as active: 15 µM.
With `CCc1ccc(-c2nc(CN3CCCC(C(=O)NCc4ccc(C)cc4)C3)c(C)o2)cc1` (centres undefined) the Potency was active: 5.8 µM.
For `CN(c1ccccc1)P(=O)(N1CC1)N1CC1`, the Potency was active: 4.11 µM.
With `COc1cc2c(cc1O)C[C@H]1NCCc3cc4c(c-2c31)OCO4` the Potency was active: 23.1 µM.
In the case of `COCCCNC(=O)CC1C[C@H](C(=O)N2CCCCC2)[C@@]2(CCc3ccccc3)c3[nH]c4ccccc4c3CCN2C1=O` (some centres undefined), the Potency is reported as inconclusive [inhibitor, single point].
In the case of `O=P(NCc1ccccc1)(Oc1ccccc1)Oc1ccccc1`, the “activity change, negative = growth inhibition” value is reported as inactive: -25.7%.
For `CN1CCN(Cc2nc3ccccc3c(=O)[nH]2)CC1`, the “activity change, negative = growth inhibition” value was inactive: -7.5%.
In the case of `COc1ccc(NC(=O)[C@@H](NC(=O)N2C[C@H]3C[C@@H](C2)c2cccc(=O)n2C3)C(C)C)cc1`, the “activity change, negative = growth inhibition” value is reported as inactive: 2.4%.
For `COc1cc2c(c(OC)c1OC)-c1ccc(O)cc1[C@@H](NC(C)=O)CC2`, the Potency was active: 0.164 µM.
For `Oc1ccccc1-[n+]1c(-c2ccccc2)cc(-c2ccccc2)c(O)c1-c1ccccc1`, the Potency was inconclusive [inhibitor, partial curve, poor fit].
In the case of `COc1cc(CNC(=O)CCCC/C=C/C(C)C)ccc1O`, the Potency is reported as “inactive and active: 8.91 µM”.
For `NS(=O)(=O)c1ccc(CCNC(=O)c2ccc(Cl)c(S(=O)(=O)N3CCCCCC3)c2)cc1`, the Potency was active: 23.1 µM.
In the case of `COc1cccc(-n2c(CN3CCN(C)CC3)nc3ccc([N+](=O)[O-])cc3c2=O)c1`, the Potency is reported as inconclusive [inhibitor, single point].
In the case of `O=P1(c2ccccc2)Nc2ccccc2N1c1ccccc1` (centres undefined), the Potency is reported as inconclusive [inhibitor, single point].
With `COc1cc([C@@H]2c3cc4c(cc3C[C@H]3COC(=O)[C@@H]32)OCO4)cc(OC)c1O` the Potency was active: 0.0316 µM.
For `Clc1cccc(N2CCNCC2)n1`, the “activity change, negative = growth inhibition” value was inactive: -6.75%.
With `CC(=O)OC1(c2ccccc2)CCN(C)CC1(C)C` (centres undefined) the “activity change, negative = growth inhibition” value was inactive: 1.56%.
With `Cc1ccc(NC(=O)CN2C(=O)CN=C(c3ccccc3)c3ccccc32)c(C)c1` the Potency was inconclusive [inhibitor, single point].
In the case of `C=CCN1CC[C@]23c4c5ccc(O)c4O[C@@H]2C(=O)CC[C@]3(O)[C@H]1C5`, the “activity change, negative = growth inhibition” value is reported as inactive: -11.4%.
In the case of `CC(=O)OC1CCC2(C)C(=CC(=O)C3C2CCC2(C)C(OC(C)=O)CCC32)C1` (centres undefined), the Potency is reported as inconclusive [inhibitor, partial curve].
With `Cc1ccc(OC(=O)N(C)C[C@@H]2OCc3cnnn3CCCC(=O)N([C@@H](C)CO)C[C@@H]2C)cc1` the Potency was inconclusive [inhibitor, partial curve].
With `O=C(NCC1=C(c2ccc3ccccc3c2)C[C@@H]2CC[C@H]1N2Cc1ccco1)c1cccs1` the Potency was active: 23.1 µM.
For `Cn1c(O)c(C=NCCN2CCNCC2)c(=O)[nH]c1=O`, the “activity change, negative = growth inhibition” value was inactive: -9.35%.
With `Cc1ccc(-c2nc3ccccc3c(=O)n2-c2ccccn2)cc1` the Potency was inconclusive [inhibitor, single point].
With `CN1CCCN(C(=O)COc2ccc(Br)cc2)CC1` the “activity change, negative = growth inhibition” value was inactive: 8.78%.
For `Cc1c(N=Cc2c(O)n(Cc3ccc(F)cc3)c(=O)[nH]c2=O)c(=O)n(-c2ccccc2)n1C`, the “activity change, negative = growth inhibition” value was inactive: 3.84%.
With `COC(=O)N1Cc2ccccc2-n2nncc2C1` the Potency was inconclusive [inhibitor, single point].
With `Cc1ccc(C)c(N2CCN(c3nc4ccc(Cl)cc4n4cnnc34)CC2)c1` the Potency was active: 16.4 µM.
With `O=[N+]([O-])c1ccc(S(=O)(=O)N2CCn3cccc3C2c2ccccc2F)cc1` (centres undefined) the Potency was active: 16.4 µM.
For `CSCCC(c1nnnn1Cc1ccccc1)N1CCC(n2c(=O)[nH]c3ccccc32)CC1` (centres undefined), the Potency was active: 1.84 µM.
For `Cc1ccccc1NC(=O)CSc1nc2ccccc2c2nc(CCn3c(C)nc4ccccc43)nn12`, the Potency was active: 18.4 µM.
With `Cc1cc(C)cc(NC(=O)Cn2c(=O)oc3cc(S(=O)(=O)N4CC(C)CC(C)C4)ccc32)c1` (centres undefined) the Potency was inconclusive [inhibitor, single point].
With `O=C(OCC(=O)c1ccc([N+](=O)[O-])cc1)/C(=C/c1ccc(Cl)cc1)NC(=O)c1ccccc1` the Potency was active: 23.1 µM.
For `O=P(/C(=N/O)N1CCOCC1)(N1CCOCC1)N1CCOCC1`, the “activity change, negative = growth inhibition” value was inactive: -29.4%.
With `CN(C)C(=O)CSc1nnc([C@@H](N)Cc2ccccc2)o1` the “activity change, negative = growth inhibition” value was inactive: -0.998%.
With `O=C1CN=C(c2cc([N+](=O)[O-])ccc2Cl)c2cc([N+](=O)[O-])ccc2N1` the “activity change, negative = growth inhibition” value was inactive: -18.7%.
For `COC(=O)C1=C(c2ccc(OC(F)(F)F)cc2)C[C@@H]2CC[C@H]1N2C(=O)NC1Cc2ccccc2C1`, the Potency was inconclusive [inhibitor, single point].
In the case of `CCOc1ccc(-n2c(/C=C/c3ccccc3)nc3ccccc3c2=O)cc1`, the Potency is reported as inconclusive [inhibitor, partial curve].
In the case of `Cc1ccc(S(=O)(=O)N(C)C[C@H]2Oc3ncc(Br)cc3C(=O)N([C@H](C)CO)C[C@@H]2C)cc1`, the Potency is reported as active: 23.1 µM.
In the case of `Cc1nc2ccccc2c(=O)n1-c1cc([N+](=O)[O-])cc([N+](=O)[O-])c1`, the Potency is reported as inconclusive [inhibitor, single point].
For `CCOc1ccc(N2C(=O)CC(=O)NC2=O)cc1`, the “activity change, negative = growth inhibition” value was inactive: -8.56%.
In the case of `Cc1ccc(NC(=O)N2CC2)cc1NC(=O)N1CC1`, the Potency is reported as inconclusive [inhibitor, single point].
With `CCN1CCN(Cc2ccc(OC(F)(F)F)cc2)CC1` the “activity change, negative = growth inhibition” value was inactive: -7.94%.
With `O=C(CF)NC(Nc1cccc2cccnc12)C(Cl)(Cl)Cl` (centres undefined) the Potency was inconclusive [inhibitor, partial curve].
For `CCC(=NCc1ccco1)c1c(O)n(C2CCCCC2)c(=O)[nH]c1=O`, the Potency was inconclusive [inhibitor, single point].
For `CC12CCC3C(CCC4(O)CC(O)CCC34C=NO)C1(O)CCC2C1=COC(=O)C1` (centres undefined), the Potency was active: 8.2 µM.
In the case of `CCOC(=O)c1c(C)[nH]c(C)c1S(=O)(=O)NCC(=O)N1CCN(c2cc(Cl)ccc2C)CC1`, the Potency is reported as active: 18.4 µM.
In the case of `Cc1ccc(Cn2c(SCc3ccc(C(=O)NC4CCCC4)cc3)nc3ccncc32)cc1`, the Potency is reported as active: 16.4 µM.
